Screen size: about 48,000 compounds; about 120 (0.25%) were called active. Inconclusive results (about 4%) are left out. Calls come from the whole dose curve; as a rule, active = well fitted activation curve with a large enough effect; inconclusive = small, poorly fitted or top-dose-only effect, or another doubt; inactive = no such curve, though single readings can be large or run the other way. Some of the results follow.
Test: Primary qHTS for Identification of Small Molecule Activators of Huntingtin-Antisense Promoter Activity; note: nearly all actives have a fitted effect of over 55% in size
Settings: HEK293 HTT-AS promoter firefly luciferase reporter (activity 0% = vehicle and -100% = no light), 24 h; series mostly up to 57.5 µM; activity change, positive = activation: at the top concentration
Procedure, shortened: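 HEK293 cells carrying firefly luciferase reporters were seeded at 2,500 per well in Opti-MEM and cultured for 24 h. They were then treated with compounds at up to 57.5 uM final for 24 h at 37 degrees C before Dual-Glo luminescence readout.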

Activity change, positive = activation, inactive:
Cc1ccc(C)c(N2CCN(C(=O)CCn3c(=O)c4cccn4c4cccnc43)CC2)c1 -17.9%
COc1ccccc1Nc1nc(-c2ccccc2Cl)c2cc(Br)ccc2n1 -10.1%
CC1=C(C(=O)Nc2ccc(Cl)cc2)C(C(C)C)n2nc(SCc3ccc(Cl)cc3)nc2N1 (centres undefined) -9.86%
COc1ccccc1CNC(=O)Cn1c(=O)oc2cc(S(=O)(=O)NCc3ccccc3)ccc21 -33.8%
O=C(NCC1CCN(Cc2cccc(Cl)c2)CC1)c1cc2ccc3cccnc3c2[nH]1 -8.45%
COc1ccc(OC)c(CCNC(=O)C2=C(C)C(=O)OC23CCC(C)CC3)c1 (centres undefined) -16.8%
O=C(Cn1nc(C(F)(F)F)c2c1CCC2)Nc1ccc(Cl)cc1 -29.3%
Cc1cc(C)c2c(CC(=O)Nc3ccc(S(=O)(=O)Nc4ncccn4)cc3)coc2c1 -2.56%
Cc1ccccc1CCNC(=O)C1CCN(c2nc3ccccc3nc2C(F)(F)F)CC1 -6.9%
COC(=O)c1cc(NC(=O)c2sc3ncn(Cc4cccc(F)c4)c(=O)c3c2C)cc(C(=O)OC)c1 -7.76%
CCOc1ccc(C(=O)NCCn2cc(SCC(=O)Nc3ccccc3)c3ccccc32)cc1 -61.6%
COc1cc(CN(C(=O)c2cccc(C)c2)c2ccccn2)cc(OC)c1OC -22.6%
Cc1ccc(-n2c(SCC(=O)NCc3ccccc3)nc3c([nH]c4ccccc43)c2=O)cc1 -16.9%
COc1ccccc1NC(=O)CCS(=O)(=O)c1cc2c3c(c1)CCN3C(=O)CC2 2.29%
O=C(NCc1ccccc1Cl)c1cc(=O)[nH]c2ccc(S(=O)(=O)N3CCCCC3)cc12 -11.1%
CC[C@@H]1C=C(C)C[C@H](C)C[C@H](OC)[C@H]2O[C@@](O)(C(=O)C(=O)N3CCCC[C@@H]3C(=O)O[C@H](C(C)=C[C@@H]3CC[C@H](Cl)[C@H](OC)C3)[C@H](C)[C@@H](O)CC1=O)[C@H](C)C[C@H]2OC -6.95%
CCC1CCCCN1C(=O)c1nn(-c2ccc(OC)cc2)c(=O)c2c1c1ccccc1n2C (centres undefined) -8.05%
Cc1ccc2c(c1C)NC(=O)CC2c1ccc(Cl)cc1Cl (centres undefined) -33.3%
CCC(O)c1cc2c(cc1NC(=O)c1ccccc1F)OCCO2 (centres undefined) 3.18%
O=C(CC1N=C2c3ccccc3N=C(SCc3cccc(F)c3)N2C1=O)NCc1ccc2c(c1)OCO2 (centres undefined) -12.9%
Cc1ccc(OCC(=O)Nc2cccc(C(=O)OCc3cc(=O)n4nc(C)sc4n3)c2)cc1 -39.4%
OCCOCCN1CCN(C(c2ccccc2)c2ccc(Cl)cc2)CC1 (centres undefined) -0.307%
O=C(O)c1ccc(NC(=O)c2cn(-c3ccccc3)nc2-c2ccc(Br)cc2)cc1 3.48%
COc1cccc(CNC(=O)C(=O)Nc2ccc3nc4n(c(=O)c3c2)CCCCC4)c1 2.89%
Cc1ccc(N2CCN(C(=O)c3cc(S(=O)(=O)N4CCCCC4)c[nH]3)CC2)c(C)c1 -9.33%
Cc1ccc(-c2cc(C(=O)Oc3ccccc3Cl)no2)cc1C 2.92%
CCc1ccc(C(=O)Nc2cc(CN3CCN(C)CC3)cc(C(F)(F)F)c2)cc1C#Cc1cnc2ccnn2c1 -30%
Cc1ccc2nc(Cl)c3cc(C(=O)NC4CCC(C)CC4)sc3c2c1 (centres undefined) 0.577%
Cn1c2ccccc2c2c3c(c4c5ccccc5n(CCC#N)c4c21)CNC3=O -40.4%
CCc1cccc(C)c1NC(=O)Cn1ccn(Cc2ccc(Cl)cc2)c(=O)c1=O -15.1%
COc1ccc(NC(=O)CN(C)S(=O)(=O)c2cnc[nH]2)cc1Cl 0.148%
Cc1ccc(-c2[nH]c(-c3ccccc3)nc2SCC(=O)NCC2CCCO2)cc1 (centres undefined) -19.7%
Cc1cc(CCCOc2c(C)cc(-c3noc(C(F)(F)F)n3)cc2C)on1 -7.2%
COc1ccc(-c2noc(COc3ccc(Br)cc3C)n2)cc1OC -10%
CCc1ccccc1NC(=O)Cn1c(=O)n(Cc2ccco2)c(=O)c2sc3ccccc3c21 -13.6%
Cc1ccc(NC(=O)Cn2c(=O)n(Cc3ccc4c(c3)OCO4)c(=O)c3ccccc32)c(C)c1 -9.21%
Cc1ccc(C)c(N2CCN(S(=O)(=O)c3cnc(N)nc3)CC2)c1 -24.5%
Cc1ccc2nc(N3CCN(c4cccc(C)c4C)CC3)c3nncn3c2c1 -3.8%
CCOC(=O)c1ccc2c(c1)N(Cc1ccccc1)C(=O)c1ccccc1S2 -21%
CC(C)CCn1c(=O)c2sccc2n2c(CCCC(=O)NC3CCC(C)CC3)nnc12 (centres undefined) -13.7%
CCCCc1ccc(NC(=O)CSc2nc3ccccc3nc2N2CCOCC2)cc1 -10.2%
O=C(Nc1cc(Cl)cc(Cl)c1)c1ccc(F)c(S(=O)(=O)NC2CCCCC2)c1 -36.3%
O=C(NCCS(=O)(=O)N1CCN(c2ccc(F)cc2)CC1)C1CC(=O)N(c2ccc(F)cc2)C1 (centres undefined) 10.8%
COc1ccc(CCNC(=O)CCSCc2ccccc2Cl)cc1OC 1.22%
CC(C)c1ccc2oc(-c3ccc(NC(=O)c4cc5ccccc5o4)cc3)nc2c1 -2.64%
Cc1cccc(OCC(=O)N(Cc2ccccc2)c2ccccn2)c1 -18.5%
COc1ccc(CCNC(=O)c2ccc3c(Cl)c4c(nc3c2)CCCC4)c(OC)c1 -36.8%
COC(=O)c1cnc(N2CCN(c3ccc(F)cc3)CC2)c2ccccc12 -5.25%
CS(=O)(=O)N1CCCc2cc(C(=O)Nc3cccc(C(F)(F)F)c3)ccc21 -39.5%
CC1CCC(NC(=O)c2ccc(CS(=O)(=O)c3c(Cl)cccc3Cl)o2)CC1 (centres undefined) -32.9%
COc1ccc(OCC(=O)Nc2ccccc2C(=O)OCc2cc(=O)n3nc(C)sc3n2)cc1 -4.41%
COc1cc(-c2nc(-c3cccc(Cl)c3)c(-c3ccccc3)[nH]2)cc(OC)c1OC -29.7%
O=C(NCCN1CCCCC1)c1ccc(Cn2c(SCc3cccc(F)c3)nc3cccnc32)cc1 -3.96%
COC(=O)c1ccc(CSc2nc3c(c(=O)[nH]2)CCC3)cc1 -4.49%
COc1ccc(S(=O)(=O)c2c(SC)nn(CC(=O)Nc3cccc(C)c3C)c2N)cc1 -17.9%
Cc1ccc2c(c1)NC(=O)c1cccnc1O2 -7.41%
Cc1ccc(-c2nc(CS(=O)(=O)CC(=O)NCCc3ccccc3)c(C)o2)cc1 -9.98%
COc1ccc(CNC(=O)Cn2nc(N3CCN(c4ccccc4)CC3)ccc2=O)c(OC)c1 -6.45%
CC1=C(C(=O)Nc2ccccc2)C(c2ccncc2)n2nc(SCc3ccccc3F)nc2N1 (centres undefined) -3.88%

Reference: PubChem BioAssay AID1508624 (National Center for Advancing Translational Sciences (NCATS), 2021)
